{"source": "PubChem BioAssay AID485294", "about": "(National Center for Advancing Translational Sciences (NCATS), 2010)", "note": "Hit rate of the full screen: of about 370,000 compounds, about 150 (0.041%) were called active. The shares of active, inactive and inconclusive entries below differ from those in the screen. The call rests on the fitted dose curve; in most records, active means well fitted inhibition curve with a large enough effect; inconclusive means small, poorly fitted or top-dose-only effect; inactive means flat fitted curve, though single readings scatter. No potency is given beside an inconclusive call; the fits are too rough. Potency means the concentration at half of the fitted maximal effect; tags describe the fitted curve by direction and shape."}
{"biological_target": "Beta-lactamase (Escherichia coli (strain K12)) (UniProt P00811)", "sequence (P00811 whole entry, looked up)": "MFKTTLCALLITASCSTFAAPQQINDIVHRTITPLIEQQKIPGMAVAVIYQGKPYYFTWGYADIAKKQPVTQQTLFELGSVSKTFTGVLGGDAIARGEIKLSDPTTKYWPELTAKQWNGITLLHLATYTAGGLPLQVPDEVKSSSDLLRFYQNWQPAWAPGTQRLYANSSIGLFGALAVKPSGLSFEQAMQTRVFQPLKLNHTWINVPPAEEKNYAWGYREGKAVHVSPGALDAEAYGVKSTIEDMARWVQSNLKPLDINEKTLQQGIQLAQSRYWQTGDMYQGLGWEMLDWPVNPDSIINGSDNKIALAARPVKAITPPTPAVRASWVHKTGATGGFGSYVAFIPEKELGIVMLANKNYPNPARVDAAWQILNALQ", "assay": "qHTS Inhibitors of AmpC Beta-Lactamase (assay with detergent); further: nearly all actives have a fitted effect of over 25% in size", "details": "AmpC hydrolysis of nitrocefin, absorbance 480 nm, 0.01% Triton; series mostly up to 114 µM", "procedure,_shortened": "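20 mM phosphate pH 7.0 + 0.01% (detergent screen) or 0.0001% Triton X-100; 5.3 nM AmpC reagent; cpd preinc 15 min RT; nitrocefin (800 uM stock) to start; A480 q20 s × 4 min; Activity was normalised to no-enzyme and no-compound control wells.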"}
{"smiles": "Cc1ccc(Cl)cc1N1CCN(C(=O)C2CCN(c3nnc(-n4cccc4)s3)CC2)CC1", "Potency": "inconclusive [inhibitor, full curve, poor fit]"}
{"smiles": "COC(=O)c1ccc2[nH]c(C(C)(C)O)c(C)c2c1", "Potency": "inactive"}
{"smiles": "O=C(/C=C/c1ccccc1)c1ccc(NC2=NCCCS2)cc1", "Potency": "inconclusive [inhibitor, partial curve]"}
{"smiles": "CCN(CC(=O)Nc1ccc2c(c1)OCO2)CC(=O)Nc1ccccc1C(F)(F)F", "Potency": "inconclusive [inhibitor, partial curve]"}
{"smiles": "O=C(c1ccco1)N1CCC(n2nnc3ccccc32)CC1", "Potency": "inconclusive [inhibitor, full curve]"}
{"smiles": "Cc1ccc(SCCNC(=O)c2ccccc2F)cc1", "Potency": "inconclusive [inhibitor, full curve, poor fit]"}
{"smiles": "C=CCn1nc2ccccc2c1OC", "Potency": "inconclusive [inhibitor, single point]"}
{"smiles": "CSc1ccccc1OCc1cc(C(=O)NC2CCOC2)no1", "note": "(centres undefined)", "Potency": "inactive"}
{"smiles": "COC(=O)C(C)Oc1ccc2cc(-c3ccccc3)c(=O)oc2c1", "note": "(centres undefined)", "Potency": "inconclusive [inhibitor, partial curve, poor fit]"}
{"smiles": "C=CCN1/C(=C2/SC(=S)N(C)C2=O)Sc2ccccc21", "Potency": "inconclusive [inhibitor, partial curve]"}
{"smiles": "CCN(CC)CCN1C(=O)C(O)=C(C(=O)c2ccco2)C1c1ccccn1", "note": "(centres undefined)", "Potency": "inactive"}
{"smiles": "CCOC(=O)Cc1csc(N/N=C/c2ccc(C(F)(F)F)cc2)n1", "Potency": "inconclusive [inhibitor, full curve, poor fit]"}
{"smiles": "CCC(=O)OCCNc1cc(SCCC(=O)OC)c2nonc2c1[N+](=O)[O-]", "Potency": "inactive"}
{"smiles": "COc1ccccc1C(=O)Oc1ccc(C(C)C)cc1", "Potency": "inconclusive [inhibitor, full curve, poor fit]"}
{"smiles": "CC(C)c1nn2c(=O)cc(COC(=O)CNC(=O)c3ccccc3Cl)nc2s1", "Potency": "inconclusive [inhibitor, full curve, poor fit]"}
{"smiles": "O=C(Cn1ccn(-c2ccc(F)c(F)c2)c(=O)c1=O)c1ccc(F)cc1", "Potency": "inactive"}
{"smiles": "COc1ccc(N2CCN(C(=O)Cc3nn(C)c(=O)c4ccccc34)CC2)cc1", "Potency": "inconclusive [inhibitor, full curve]"}
{"smiles": "CCOC(=O)c1sc(-c2ccc(OC)cc2)cc1N", "Potency": "inconclusive [inhibitor, partial curve]"}
{"smiles": "Cc1sc2nc(SCC(=O)c3cc(C)n(CC4CCCO4)c3C)n(C(C)C)c(=O)c2c1C", "note": "(centres undefined)", "Potency": "inconclusive [inhibitor, full curve, poor fit]"}
{"smiles": "NC(=S)N/N=C/c1ccc2cccc(OCc3ccccc3)c2n1", "Potency": "inactive"}
{"smiles": "COc1ccc(C2CC(=O)c3c(C)nc(N4CCN(C=O)CC4)nc3C2)c(OC)c1", "note": "(centres undefined)", "Potency": "inactive"}
{"smiles": "COc1ccc(C2=NOC(C(=O)O)C2)cc1", "note": "(centres undefined)", "Potency": "inconclusive [inhibitor, single point]"}
{"smiles": "O=C(OC(C(=O)Nc1ccc(Cl)cc1C(F)(F)F)c1ccccc1)c1c(Cl)cccc1Cl", "note": "(centres undefined)", "Potency": "inactive"}
{"smiles": "NC(=O)c1ccc(Oc2ncc(C(F)(F)F)cc2Cl)cc1", "Potency": "inconclusive [inhibitor, full curve, poor fit]"}
{"smiles": "CC(=O)c1ccc(NC(=O)CCCc2nc(-c3cccc(C)c3)no2)cc1", "Potency": "inactive"}
{"smiles": "O=C(CN(Cc1ccccc1C(F)(F)F)C(=O)CNC(=O)c1ccco1)NC1CCCC1", "Potency": "inconclusive [inhibitor, partial curve, poor fit]"}
{"smiles": "CCOc1ccc(CCNC(=O)C2=C(C)C(=O)OC23CCC(C)CC3)cc1", "note": "(centres undefined)", "Potency": "inconclusive [inhibitor, full curve, poor fit]"}
{"smiles": "COc1ccc(S(=O)(=O)Nc2ccc(OCC(=O)O)cc2)c2ccccc12", "Potency": "inconclusive [inhibitor, single point]"}
{"smiles": "O=C(O)C1CSC(c2coc3ccccc3c2=O)N1", "note": "(centres undefined)", "Potency": "inconclusive [inhibitor, full curve]"}
{"smiles": "COc1ccccc1Nc1nc(N)nc(CSC(=S)N2CCCCC2)n1", "Potency": "inconclusive [inhibitor, full curve, poor fit]"}
{"smiles": "CCOC(=O)CCCNC(=O)CN1C(=O)NC(c2ccccc2)(c2ccccc2)C1=O", "Potency": "inconclusive [inhibitor, full curve, poor fit]"}
{"smiles": "CCC(CC)C(=O)NCCc1cc2ccc(C)c(C)c2[nH]c1=O", "Potency": "inconclusive [inhibitor, full curve]"}
{"smiles": "COCCOC(=O)c1c(C)oc2ccc(OC(=O)c3c(OC)cccc3OC)cc12", "Potency": "inactive"}
{"smiles": "COc1ccc(-c2cc(N)n(S(=O)(=O)c3c(F)c(F)c(F)c(F)c3F)n2)cc1OC", "Potency": "inconclusive [inhibitor, single point]"}
{"smiles": "Cc1cc(C(=O)NNCc2ccccc2)no1", "Potency": "inconclusive [inhibitor, partial curve, poor fit]"}
{"smiles": "CC(=O)OC(C(=O)NCc1ccco1)c1ccncc1", "note": "(centres undefined)", "Potency": "inactive"}
{"smiles": "CN(C(=O)Cn1cc(C#N)c2ccccc21)c1ccccc1", "Potency": "inactive"}
{"smiles": "CCC1CCCCN1CCCNC(=O)c1ccc2c(c1)N(Cc1ccc(Cl)cc1)C(=O)c1ccccc1S2(=O)=O", "note": "(centres undefined)", "Potency": "inactive"}
{"smiles": "Cc1[nH]n(-c2ccccc2)c(=O)c1/C=N/N1C(=O)c2ccc3c4c(ccc(c24)C1=O)CC3", "Potency": "inconclusive [inhibitor, full curve, poor fit]"}
{"smiles": "CCOC(=O)Cc1csc(NC(=O)COc2ccc(C)c(C)c2)n1", "Potency": "inactive"}
{"smiles": "O=C(O)CSc1nnc(-c2cc3ccccc3o2)n1-c1ccccc1", "Potency": "inconclusive [inhibitor, partial curve]"}
{"smiles": "CC1CCN(S(=O)(=O)N2CCC(C(=O)O)CC2)CC1", "Potency": "inconclusive [inhibitor, full curve, poor fit]"}
{"smiles": "O=C1CCC([N+](=O)[O-])C(c2ccc(Cl)c([N+](=O)[O-])c2)N1", "note": "(centres undefined)", "Potency": "inconclusive [inhibitor, partial curve]"}
{"smiles": "CC(=O)Nc1ccccc1C(=O)N1CC2(C)CC1CC(C)(C)C2", "note": "(centres undefined)", "Potency": "inconclusive [inhibitor, single point]"}
{"smiles": "COCCn1c(SCC(=O)Nc2cc(C)nn2-c2ccccc2)nnc1-c1ccncc1", "Potency": "inconclusive [inhibitor, partial curve, poor fit]"}
{"smiles": "COc1ccc(NC(=O)CCNS(=O)(=O)c2cccc3nonc23)cc1Cl", "Potency": "inconclusive [inhibitor, partial curve]"}
{"smiles": "COc1ccccc1CNC(=O)c1cc(S(=O)(=O)N2CCOCC2)cn1C", "Potency": "inactive"}
{"smiles": "COc1cc(OC)cc(-c2nc3ccccc3s2)c1", "Potency": "inconclusive [inhibitor, partial curve, poor fit]"}
{"smiles": "CCOC(=O)C1CCN(C(=O)c2ccc3c(c2)C(=O)N(c2ccccc2C)C3=O)CC1", "Potency": "inconclusive [inhibitor, full curve, poor fit]"}
{"smiles": "CC(=O)N1CCC(O)(c2cccc(C(F)(F)F)c2)CC1", "Potency": "inactive"}
{"smiles": "Cc1cccc(C(=O)N2CCCC(c3nc(-c4ccc(F)cc4)no3)C2)c1", "note": "(centres undefined)", "Potency": "inconclusive [inhibitor, full curve, poor fit]"}
{"smiles": "CC(OC(=O)CSc1ccc(F)cc1)C(=O)NC1(C#N)CCCCC1", "note": "(centres undefined)", "Potency": "inactive"}
{"smiles": "CCCn1c(=O)c2c(C(=O)OCC)cc(-c3ccco3)nc2n(CCC)c1=O", "Potency": "inactive"}
{"smiles": "Cc1ccc2nc(-c3cccc(Br)c3)cc(C(=O)NC3=NCCS3)c2c1", "Potency": "inactive"}
{"smiles": "CCOC(=O)c1ccc(CN(Cc2ccccc2C)S(=O)(=O)c2ccc(F)c(C(=O)Nc3cccc(OC)c3)c2)cc1", "Potency": "inactive"}
{"smiles": "O=C1CC(c2nnc(Cc3ccccc3Cl)o2)CN1c1ccccc1", "note": "(centres undefined)", "Potency": "inactive"}
{"smiles": "CN(C)c1nc(OCCOC(=O)c2ccccc2)nc(N(C)C)n1", "Potency": "inconclusive [inhibitor, full curve, poor fit]"}
{"smiles": "COc1ccc(NC(=O)Cn2cc(C(=O)c3ccco3)c3ccccc32)cc1", "Potency": "inactive"}
{"smiles": "c1ccc(C2[C@H]3CN(CC4CCCCC4)[C@H](c4ccccc4)C34CC2(c2cccnc2)C4)cc1", "note": "(some centres undefined)", "Potency": "inactive"}
{"smiles": "CCOCCCn1c(=N)c(C(=O)NCc2ccc3c(c2)OCO3)cc2c(=O)n3ccccc3nc21", "Potency": "inconclusive [inhibitor, single point]"}
{"smiles": "CCn1c(=N)n(CC(=O)c2cccc(OC)c2)c2ccccc21", "Potency": "inconclusive [inhibitor, full curve, poor fit]"}
{"smiles": "CCN(CC(=O)Nc1c(C(=O)OC)[nH]c2ccc(Cl)cc12)c1ccc2c(c1)OCO2", "Potency": "inconclusive [inhibitor, partial curve, poor fit]"}
{"smiles": "CC(=O)c1cc(C#N)c(NCc2cc(-c3ccccc3)no2)nc1C", "Potency": "inconclusive [inhibitor, full curve, poor fit]"}
{"smiles": "O=[N+]([O-])c1cccc(C(=NCc2ccccc2)NO)c1", "Potency": "inconclusive [inhibitor, full curve, poor fit]"}
{"smiles": "CC(C)(S)[C@@H](N)C(=O)O", "Potency": "inactive"}
{"smiles": "COc1ccc(C(=O)Nc2ncc3c(n2)CC(C)CC3=O)cc1", "note": "(centres undefined)", "Potency": "inactive"}
{"smiles": "CC(CNC(=O)CN1C(=O)NC2(CCCCC2C)C1=O)c1ccccc1", "note": "(centres undefined)", "Potency": "inconclusive [inhibitor, full curve, poor fit]"}
{"smiles": "Cc1cc(C(F)F)n2nc(C(=O)Nc3ccc(F)cc3F)nc2n1", "Potency": "inconclusive [inhibitor, full curve, poor fit]"}
{"smiles": "COc1ccc(N2CCCn3c2nc2c3c(=O)n(Cc3ccccc3F)c(=O)n2C)c(OC)c1", "Potency": "inconclusive [inhibitor, full curve, poor fit]"}
